Test results reported in the supplement of paper PMC8948288.
The sequences are guide strands of siRNAs; only the seed at positions 2 to 7 varies.

Key:
GL261 = experiment: cell viability relative to siNT1 (ATP content); H4 human neuroglioma and GL261 mouse glioma; higher = less toxic; settings: siRNA concentration 25 nM; 96 h; mouse
H4 = experiment: as above; settings: siRNA concentration 10 nM; 96 h; human
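Note: cells reverse transfected with siRNA duplexes via lipid reagent, ATP read by luminescence, triplicate wells, values scaled to mean viability with non-targeting control siNT1.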

Sequence | cell viability (GL261) [%] | cell viability (H4) [%]
UCGGGGCACAUGUAAACCA | 11.1 | 2.38
UCGGGGGACAUGUAAACCA | 16.4 | 3.79
UCGGGGUACAUGUAAACCA | 14.8 | 3.88
UCGGGUAACAUGUAAACCA | 47.1 | 85.3
UCGGGUCACAUGUAAACCA | 6.64 | 10.6
UCGGGUGACAUGUAAACCA | 33.8 | 80.3
UCGGGUUACAUGUAAACCA | 45 | 82.1
UCGGUAAACAUGUAAACCA | 64.6 | 71.9
UCGGUACACAUGUAAACCA | 36.7 | 55.6
UCGGUAGACAUGUAAACCA | 51.7 | 87.4
UCGGUAUACAUGUAAACCA | 112 | 77.4
UCGGUCAACAUGUAAACCA | 31.7 | 57.6
UCGGUCCACAUGUAAACCA | 6.42 | 26
UCGGUCGACAUGUAAACCA | 28.4 | 53.5
UCGGUCUACAUGUAAACCA | 19.2 | 23.2
UCGGUGAACAUGUAAACCA | 60.4 | 80.7
UCGGUGCACAUGUAAACCA | 29.4 | 11.1
UCGGUGGACAUGUAAACCA | 14.8 | 13.5
UCGGUGUACAUGUAAACCA | 16.1 | 69.6
UCGGUUAACAUGUAAACCA | 72.5 | 90.7
UCGGUUCACAUGUAAACCA | 39.1 | 49
UCGGUUGACAUGUAAACCA | 62.4 | 75.7
UCGGUUUACAUGUAAACCA | 63.1 | 89.3

Sequence | cell viability (GL261) [%] | cell viability (H4) [%]
UCGUAAAACAUGUAAACCA | 64.2 | 101
UCGUAACACAUGUAAACCA | 60.8 | 70.5
UCGUAAGACAUGUAAACCA | 48.9 | 107
UCGUAAUACAUGUAAACCA | 39.4 | 86
UCGUACAACAUGUAAACCA | 56.3 | 113
UCGUACCACAUGUAAACCA | 17 | 50.8
UCGUACGACAUGUAAACCA | 55 | 95.5
UCGUACUACAUGUAAACCA | 58.4 | 87.6
UCGUAGAACAUGUAAACCA | 65.4 | 110
UCGUAGCACAUGUAAACCA | 26.9 | 36.2
UCGUAGGACAUGUAAACCA | 46.7 | 70.7
UCGUAGUACAUGUAAACCA | 27.4 | 82.6
UCGUAUAACAUGUAAACCA | 51.2 | 96.1
UCGUAUCACAUGUAAACCA | 38.6 | 72.6
UCGUAUGACAUGUAAACCA | 49.4 | 115
UCGUAUUACAUGUAAACCA | 41.8 | 80.8
UCGUCAAACAUGUAAACCA | 44.6 | 114
UCGUCACACAUGUAAACCA | 28.6 | 66.6
UCGUCAGACAUGUAAACCA | 36.8 | 84.7
UCGUCAUACAUGUAAACCA | 47.5 | 97.4
UCGUCCAACAUGUAAACCA | 47.9 | 87
UCGUCCCACAUGUAAACCA | 11.3 | 43.1
UCGUCCGACAUGUAAACCA | 54 | 63.4

Sequence | cell viability (GL261) [%] | cell viability (H4) [%]
UCGUCCUACAUGUAAACCA | 18.7 | 33
UCGUCGAACAUGUAAACCA | 71 | 88.3
UCGUCGCACAUGUAAACCA | 22.1 | 25.5
UCGUCGGACAUGUAAACCA | 45.1 | 58.2
UCGUCGUACAUGUAAACCA | 37.5 | 67.7
UCGUCUAACAUGUAAACCA | 83.2 | 101
UCGUCUCACAUGUAAACCA | 13 | 51.4
UCGUCUGACAUGUAAACCA | 51.3 | 82.5
UCGUCUUACAUGUAAACCA | 39 | 96.2
UCGUGAAACAUGUAAACCA | 49.4 | 85.1
UCGUGACACAUGUAAACCA | 37.1 | 54.6
UCGUGAGACAUGUAAACCA | 39.7 | 77
UCGUGAUACAUGUAAACCA | 44.8 | 72.3
UCGUGCAACAUGUAAACCA | 52 | 94.6
UCGUGCCACAUGUAAACCA | 31.3 | 69.4
UCGUGCGACAUGUAAACCA | 29.9 | 124
UCGUGCUACAUGUAAACCA | 65.5 | 79.4
UCGUGGAACAUGUAAACCA | 47 | 67.3
UCGUGGCACAUGUAAACCA | 16.9 | 16.6
UCGUGGGACAUGUAAACCA | 23 | 27.7
UCGUGGUACAUGUAAACCA | 14.2 | 43.7
UCGUGUAACAUGUAAACCA | 67.2 | 95.5
UCGUGUCACAUGUAAACCA | 20.8 | 72.4

Sequence | cell viability (GL261) [%] | cell viability (H4) [%]
UCGUGUGACAUGUAAACCA | 28.6 | 86.7
UCGUGUUACAUGUAAACCA | 18.2 | 87
UCGUUAAACAUGUAAACCA | 39.6 | 87.6
UCGUUACACAUGUAAACCA | 53.1 | 62.6
UCGUUAGACAUGUAAACCA | 57.2 | 82.2
UCGUUAUACAUGUAAACCA | 40.3 | 113
UCGUUCAACAUGUAAACCA | 46.2 | 70.6
UCGUUCCACAUGUAAACCA | 11.9 | 14
UCGUUCGACAUGUAAACCA | 53.8 | 86.2
UCGUUCUACAUGUAAACCA | 15.9 | 50.7
UCGUUGAACAUGUAAACCA | 61 | 71.7
UCGUUGCACAUGUAAACCA | 12.1 | 14.4
UCGUUGGACAUGUAAACCA | 50 | 60.2
UCGUUGUACAUGUAAACCA | 26.8 | 68.8
UCGUUUAACAUGUAAACCA | 61.8 | 105
UCGUUUCACAUGUAAACCA | 31.3 | 74
UCGUUUGACAUGUAAACCA | 43.1 | 92.4
UCGUUUUACAUGUAAACCA | 56.4 | 98.1
UCUAAAAACAUGUAAACCA | 52.5 | 75.5
UCUAAACACAUGUAAACCA | 61 | 84.2
UCUAAAGACAUGUAAACCA | 54.8 | 94.3
